{
  "source": "paper PMC4336329",
  "about": "(PLoS ONE, 2015)",
  "note": "In all, about 310,000 compounds went through this assay and about 2,200 (0.71%) showed an effect of 50% or more. Effects have a minus sign here. This is one part of the list.",
  "data": [
    {"molecular_target": "human ether-à-go-go-related gene (hERG) potassium channel (human, UniProt Q12809)", "sequence (Q12809 whole entry, looked up)": "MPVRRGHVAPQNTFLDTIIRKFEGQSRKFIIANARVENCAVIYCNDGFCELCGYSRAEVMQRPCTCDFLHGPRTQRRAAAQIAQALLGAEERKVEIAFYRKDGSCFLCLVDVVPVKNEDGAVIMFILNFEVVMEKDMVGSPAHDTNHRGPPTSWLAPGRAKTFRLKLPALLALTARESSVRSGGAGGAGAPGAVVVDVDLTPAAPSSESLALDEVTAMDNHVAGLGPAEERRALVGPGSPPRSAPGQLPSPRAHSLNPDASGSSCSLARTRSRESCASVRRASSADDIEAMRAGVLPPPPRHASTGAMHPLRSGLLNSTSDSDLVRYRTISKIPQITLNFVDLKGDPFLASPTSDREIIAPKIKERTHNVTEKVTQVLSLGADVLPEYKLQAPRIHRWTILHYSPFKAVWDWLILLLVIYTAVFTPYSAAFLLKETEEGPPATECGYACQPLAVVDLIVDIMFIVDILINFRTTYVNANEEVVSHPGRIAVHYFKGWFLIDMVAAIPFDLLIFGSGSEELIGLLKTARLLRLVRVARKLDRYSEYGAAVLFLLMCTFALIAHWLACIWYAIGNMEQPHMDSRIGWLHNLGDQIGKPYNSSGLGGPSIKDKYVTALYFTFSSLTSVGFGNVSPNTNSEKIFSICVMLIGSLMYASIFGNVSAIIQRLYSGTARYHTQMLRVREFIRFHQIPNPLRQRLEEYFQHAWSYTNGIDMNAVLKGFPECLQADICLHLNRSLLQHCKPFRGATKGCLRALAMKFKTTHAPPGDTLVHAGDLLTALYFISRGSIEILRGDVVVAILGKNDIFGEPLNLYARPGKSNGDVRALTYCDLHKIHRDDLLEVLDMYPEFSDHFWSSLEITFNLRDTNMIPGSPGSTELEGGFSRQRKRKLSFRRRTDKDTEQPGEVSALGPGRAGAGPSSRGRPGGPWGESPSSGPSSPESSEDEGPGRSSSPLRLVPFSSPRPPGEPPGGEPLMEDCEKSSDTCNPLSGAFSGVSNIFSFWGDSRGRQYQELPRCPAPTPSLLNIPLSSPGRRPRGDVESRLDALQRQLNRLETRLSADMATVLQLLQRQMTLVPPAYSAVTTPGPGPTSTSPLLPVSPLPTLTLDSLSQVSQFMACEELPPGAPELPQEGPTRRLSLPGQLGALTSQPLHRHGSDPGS", "assay": "primary screen, population patch clamp on CHO cells stably expressing hERG", "units": {"hERG current change (%, negative = inhibition) at 1uM": "%"}, "values": [
      {"smiles": "CCn1c(O)c(C2=c3ccccc3=NC2=O)c2cc(Br)ccc21", "hERG current change (%, negative = inhibition) at 1uM": 10.2},
      {"smiles": "COc1ccc(CNCCCSc2ncccn2)c(OC)c1.Cl", "hERG current change (%, negative = inhibition) at 1uM": 10.4},
      {"smiles": "COc1cccc(OCCn2cc(/C=N/NC(=O)c3ccncc3)c3ccccc32)c1", "hERG current change (%, negative = inhibition) at 1uM": 14.3},
      {"smiles": "CCOC(=O)c1cc(NC(=O)Nc2nc3ccccc3s2)c(C)nc1C", "hERG current change (%, negative = inhibition) at 1uM": 4.34},
      {"smiles": "CC(C)(C)OC(=O)NCc1ccc(CNC(=O)c2nc[nH]c2C(=O)N2CCN(c3ccccc3)CC2)cc1", "hERG current change (%, negative = inhibition) at 1uM": 7.53},
      {"smiles": "COc1ccc(C2C(C(=O)NCCCN3CCOCC3)c3ccccc3C(=O)N2c2ccc(OC)cc2)cc1", "note": "(stereo not drawn)", "hERG current change (%, negative = inhibition) at 1uM": 2.89},
      {"smiles": "Cc1cc(NC(=O)CCl)n(-c2nc3ccccc3s2)n1", "hERG current change (%, negative = inhibition) at 1uM": 11.5},
      {"smiles": "O=C1CN(C(=O)c2ccco2)C(c2ccccc2)c2cc(Cl)ccc2N1", "note": "(stereo not drawn)", "hERG current change (%, negative = inhibition) at 1uM": 1.13},
      {"smiles": "CCOc1ccc(-n2cnnn2)cc1S(=O)(=O)Nc1c(C)cccc1C", "hERG current change (%, negative = inhibition) at 1uM": 4.82},
      {"smiles": "Cc1ccc2nc(NC(=O)COC(=O)c3ccncc3)sc2c1", "hERG current change (%, negative = inhibition) at 1uM": -2.37},
      {"smiles": "CC(=O)Nc1ccc(NC(=O)CC23CC4CC(CC(C4)C2)C3)cc1", "hERG current change (%, negative = inhibition) at 1uM": 20.5},
      {"smiles": "Cc1ccc(-n2c(O)c(/C=N/NC(=O)c3ccncc3)c(=O)[nH]c2=O)cc1C", "hERG current change (%, negative = inhibition) at 1uM": 13.3},
      {"smiles": "CCOC(=O)C(=CNc1ncccc1C)C(=O)OCC", "hERG current change (%, negative = inhibition) at 1uM": 13.2},
      {"smiles": "Cc1n[nH]c(C)c1CCC(=O)N/N=C/c1c[nH]c2ccccc12", "hERG current change (%, negative = inhibition) at 1uM": -5.75},
      {"smiles": "CCc1nn(CC(=O)NCCc2ccc(S(N)(=O)=O)cc2)c(=O)c2cc3sccc3n12", "hERG current change (%, negative = inhibition) at 1uM": 13.5},
      {"smiles": "Cc1ccc(Nc2nc(N)c([N+](=O)[O-])c(NCc3ccccc3)n2)cc1", "hERG current change (%, negative = inhibition) at 1uM": 8.5},
      {"smiles": "CN(C)C(CNC(=O)c1cc(S(=O)(=O)N(C)c2ccccc2)ccc1Cl)c1cccs1", "note": "(stereo not drawn)", "hERG current change (%, negative = inhibition) at 1uM": 14.1},
      {"smiles": "COc1ccccc1NC(=O)c1nn(C)c(C(=O)Nc2ccccc2OC)c1[N+](=O)[O-]", "hERG current change (%, negative = inhibition) at 1uM": 15},
      {"smiles": "Cc1ccc(-c2cn(S(=O)(=O)c3cccc([N+](=O)[O-])c3)nc2N)cc1", "hERG current change (%, negative = inhibition) at 1uM": 12.6},
      {"smiles": "O=C(CSc1nnc(C2CC2)n1C1CC1)c1ccccc1F", "hERG current change (%, negative = inhibition) at 1uM": 7.18},
      {"smiles": "CSc1nnc(N2C(=O)C(O)=C(C(=O)c3ccc(C)o3)C2c2ccc(C)cc2)s1", "note": "(stereo not drawn)", "hERG current change (%, negative = inhibition) at 1uM": 7.56},
      {"smiles": "CCN(CC(=O)Nc1c(F)cccc1F)C(=O)CCN1C(=O)c2cccc([N+](=O)[O-])c2C1=O", "hERG current change (%, negative = inhibition) at 1uM": 12.8},
      {"smiles": "O=C1CCc2cc(S(=O)(=O)NC(Cc3ccccc3)C(=O)NCC3CCCO3)ccc2N1", "note": "(stereo not drawn)", "hERG current change (%, negative = inhibition) at 1uM": 13.3},
      {"smiles": "O=C(NC(=S)N1CCCCC1c1cccnc1)c1ccc(Br)cc1", "note": "(stereo not drawn)", "hERG current change (%, negative = inhibition) at 1uM": -2.83},
      {"smiles": "COc1ccc(C(=O)OCC(=O)NC(C)CCc2ccccc2)cc1", "note": "(stereo not drawn)", "hERG current change (%, negative = inhibition) at 1uM": 12.7},
      {"smiles": "S=C(NCc1ccco1)NC1CCCc2ccccc21", "note": "(stereo not drawn)", "hERG current change (%, negative = inhibition) at 1uM": 7.27},
      {"smiles": "CCC(=O)Nc1nc(C)nc(C)c1C(C)=O", "hERG current change (%, negative = inhibition) at 1uM": 7.03},
      {"smiles": "Cc1nnc(SCc2nc(N)nc(Nc3ccccc3)n2)s1", "hERG current change (%, negative = inhibition) at 1uM": 2.83},
      {"smiles": "O=C(Nc1nc2ccccc2n1Cc1ccc(Cl)cc1)c1ccco1", "hERG current change (%, negative = inhibition) at 1uM": 14.1},
      {"smiles": "Cc1noc(NS(=O)(=O)c2ccc(N)cc2)c1C", "hERG current change (%, negative = inhibition) at 1uM": 11.1},
      {"smiles": "COC(=O)c1c(C)cc(O)cc1O", "hERG current change (%, negative = inhibition) at 1uM": 15.3},
      {"smiles": "O=C(CCCC(=O)N(c1ccc(F)cc1)C(C(=O)NC1CCCC1)c1ccc(O)cc1)Nc1ccccn1", "note": "(stereo not drawn)", "hERG current change (%, negative = inhibition) at 1uM": 0.37},
      {"smiles": "CC(=O)NC(Cc1ccccc1)C(=O)O", "note": "(stereo not drawn)", "hERG current change (%, negative = inhibition) at 1uM": 17.5},
      {"smiles": "COc1cc(NC(=O)CN2C(=O)c3ccccc3C2=O)c(C(=O)O)cc1OC", "hERG current change (%, negative = inhibition) at 1uM": 15.4},
      {"smiles": "CCn1c(Cc2ccccc2)nnc1SCc1cccc(C(=O)O)c1", "hERG current change (%, negative = inhibition) at 1uM": 3.62},
      {"smiles": "OCC[N+]12CCC(CC1)C(C(O)(c1ccccc1)c1ccccc1)C2", "note": "(stereo not drawn)", "hERG current change (%, negative = inhibition) at 1uM": 15.2},
      {"smiles": "Br.CC1(C)OC(c2ccccc2)=C/C(=C/C=Nc2ccccc2)O1", "hERG current change (%, negative = inhibition) at 1uM": -10.4},
      {"smiles": "NC(=O)CC(NC(=O)Cc1ccc(Cl)cc1)c1ccc(N2CCC(Cc3ccccc3)CC2)c([N+](=O)[O-])c1", "note": "(stereo not drawn)", "hERG current change (%, negative = inhibition) at 1uM": 13.7},
      {"smiles": "CC1Cc2ccccc2N1C(=O)C(C)n1cc(C(F)(F)F)cc(Cl)c1=O", "note": "(stereo not drawn)", "hERG current change (%, negative = inhibition) at 1uM": 2.48},
      {"smiles": "CCOc1cc(C(=S)N2CCOCC2)ccc1OS(=O)(=O)c1ccc(NC(C)=O)cc1", "hERG current change (%, negative = inhibition) at 1uM": 3.35},
      {"smiles": "CCc1ccc(Nc2nc(C)cc(C)n2)cc1.Cl", "hERG current change (%, negative = inhibition) at 1uM": 12.6},
      {"smiles": "O=C1CC(N2CCN(S(=O)(=O)c3ccccc3F)CC2)C(=O)N1c1ccccc1Cl", "note": "(stereo not drawn)", "hERG current change (%, negative = inhibition) at 1uM": 10.8},
      {"smiles": "CCOc1ccc(NC(=O)CCSc2ccc3ccccc3n2)cc1", "hERG current change (%, negative = inhibition) at 1uM": 16.5},
      {"smiles": "Cc1[nH]n(-c2ccccc2)c(=O)c1N=Nc1c(O)cc(S(=O)(=O)N(C)C)c2ccccc12", "hERG current change (%, negative = inhibition) at 1uM": 16.8},
      {"smiles": "CCOC(=O)c1sc2ccccc2c1OC(=O)c1ccccc1OC", "hERG current change (%, negative = inhibition) at 1uM": 1.47},
      {"smiles": "O=C(Cc1csc(NC(=O)Nc2ccc(Cl)cc2)n1)NCc1ccccn1", "hERG current change (%, negative = inhibition) at 1uM": -8.65},
      {"smiles": "CCn1cc(C(=O)O)c(=O)c2cc(F)c(N3CCN(C(=S)NC(=O)c4ccccc4F)CC3)cc21", "hERG current change (%, negative = inhibition) at 1uM": 6.38},
      {"smiles": "COc1ccc(OC)c(-c2c3cc(O)c(=O)cc-3oc3cc(O)c(O)cc23)c1", "hERG current change (%, negative = inhibition) at 1uM": 0.795},
      {"smiles": "C=CCOC(=O)C1=C[C@H](c2ccc(C(F)(F)F)cc2)[C@@H](CCCO)[C@H](OCC)O1", "hERG current change (%, negative = inhibition) at 1uM": 14.8},
      {"smiles": "O=C(NCCN1CCN(c2ccccc2F)CC1)C1c2ccccc2C(=O)N2CCc3ccccc3C12", "note": "(stereo not drawn)", "hERG current change (%, negative = inhibition) at 1uM": 4.1},
      {"smiles": "Cc1ccc(-c2nn(Cc3ccccc3)cc2C=O)cc1", "hERG current change (%, negative = inhibition) at 1uM": 2.58},
      {"smiles": "Cc1ccc2ccc3cccc4ccc1c2c34", "hERG current change (%, negative = inhibition) at 1uM": 16.4},
      {"smiles": "COc1ccccc1C(=O)N/C(=C/c1ccc(Br)cc1)C(=O)NCCO", "hERG current change (%, negative = inhibition) at 1uM": 1.21},
      {"smiles": "CN(C)CCCNc1c2c(nc3cc(-c4cccc(F)c4)nn13)CCC2", "hERG current change (%, negative = inhibition) at 1uM": -15.6}
    ]}
  ]
}
